Measurements as given in paper PMC4336329 (PLoS ONE, 2015).
Hit rate of the full screen: of about 310,000 compounds, about 14,000 (4.5%) showed an effect of 50% or more. Effects have a minus sign here. The list shows a part of the results.

The compounds below were run against human ether-à-go-go-related gene (hERG) potassium channel (human, UniProt Q12809) (assay: primary screen, population patch clamp on CHO cells stably expressing hERG).
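Further: peak tail current of the secondary pulse compared with the same well before compound.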

Chain of human ether-à-go-go-related gene (hERG) potassium channel (Q12809 whole entry, looked up): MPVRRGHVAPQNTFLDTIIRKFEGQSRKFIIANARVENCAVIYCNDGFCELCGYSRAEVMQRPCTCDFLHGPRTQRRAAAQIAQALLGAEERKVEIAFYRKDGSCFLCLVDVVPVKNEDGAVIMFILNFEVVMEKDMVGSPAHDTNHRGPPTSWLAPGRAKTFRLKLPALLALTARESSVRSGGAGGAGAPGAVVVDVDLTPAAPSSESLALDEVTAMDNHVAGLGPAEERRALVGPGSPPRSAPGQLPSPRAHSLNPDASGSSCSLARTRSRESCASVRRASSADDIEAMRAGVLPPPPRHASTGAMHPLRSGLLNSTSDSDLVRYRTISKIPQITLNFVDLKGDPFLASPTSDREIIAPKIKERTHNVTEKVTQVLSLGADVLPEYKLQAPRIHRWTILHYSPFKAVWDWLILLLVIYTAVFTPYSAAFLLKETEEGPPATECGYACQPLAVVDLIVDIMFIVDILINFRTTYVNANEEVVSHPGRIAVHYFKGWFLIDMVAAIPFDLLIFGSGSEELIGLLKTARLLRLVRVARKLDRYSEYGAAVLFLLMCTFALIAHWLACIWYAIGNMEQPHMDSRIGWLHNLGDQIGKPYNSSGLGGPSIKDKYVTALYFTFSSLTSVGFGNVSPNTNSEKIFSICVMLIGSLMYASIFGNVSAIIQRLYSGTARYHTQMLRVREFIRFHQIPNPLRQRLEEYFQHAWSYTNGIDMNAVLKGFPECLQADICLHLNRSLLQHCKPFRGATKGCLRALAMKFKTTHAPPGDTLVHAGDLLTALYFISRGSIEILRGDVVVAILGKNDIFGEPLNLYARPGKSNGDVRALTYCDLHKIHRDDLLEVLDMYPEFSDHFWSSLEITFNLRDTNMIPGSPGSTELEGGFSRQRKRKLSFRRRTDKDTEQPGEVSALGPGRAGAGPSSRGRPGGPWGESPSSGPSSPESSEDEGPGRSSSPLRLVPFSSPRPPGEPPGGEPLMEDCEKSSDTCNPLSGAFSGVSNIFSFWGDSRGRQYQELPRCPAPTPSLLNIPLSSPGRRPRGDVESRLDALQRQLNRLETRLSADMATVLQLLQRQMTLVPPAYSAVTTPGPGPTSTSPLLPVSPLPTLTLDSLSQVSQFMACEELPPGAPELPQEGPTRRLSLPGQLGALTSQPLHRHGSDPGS

| SMILES | hERG current change (%, negative = inhibition) at 10uM [%] |
| --- | --- |
| CN(CCCNC(=O)C1CCC(=O)N1Cc1ccccc1Cl)c1ccccc1 (stereo not drawn) | 18 |
| O=C(NC(=S)Nc1ccccc1N1CCCCC1)c1ccco1 | -10.6 |
| Cc1ccc(S(=O)(=O)NCC(C)NS(=O)(=O)c2ccccc2[N+](=O)[O-])cc1 (stereo not drawn) | 16.6 |
| Cc1ccc2nc(C)c(C(=O)N/N=C/c3cccs3)n2c1 | -9.33 |
| Cc1ccc(Cl)cc1N1CCN(Cc2nc3c(c(=O)[nH]c(=O)n3C)n2CCc2ccccc2)CC1 | 6.63 |
| Cc1[nH]c2ccc(CNS(=O)(=O)c3ccc(S(=O)(=O)N4CCOCC4)cc3)cc2c1C | -13.3 |
| COC(=O)c1cc(C(=O)N2CCN(c3cccc(Cl)c3)CC2)cc([N+](=O)[O-])c1 | -59 |
| CCCCc1nc2sc3c(c2c(=O)[nH]1)CC(C)(C)OC3 | 8.11 |
| O=C1CC(NCCc2ccccc2)C(=O)N1CCc1ccccc1 (stereo not drawn) | -2.44 |
| COc1ccc(/C(C)=N/NC(=O)c2ccccc2OCc2ccccc2)c(OC)c1 | 11.2 |
| COc1cccc(N2C(=O)c3ccncc3C2=O)c1 | 22 |
| O=C(O)Cc1ccc(NC(=O)Nc2ccc(Br)cc2)cc1 | 12.9 |
| COc1cc2c(cc1OC)C(C)N(C(=O)c1cc3c(C)cc(C)cc3[nH]1)CC2 (stereo not drawn) | 5.78 |
| COc1ccc(-c2csc(Nc3cccc(C)n3)n2)cc1 | 13.2 |
| COc1cc(NC(=O)COc2c(C)cc(C)cc2[N+](=O)[O-])c(OC)cc1Cl | -0.303 |
| COc1cc(OC)c(S(=O)(=O)Nc2ccccc2C(=O)O)cc1S(=O)(=O)Nc1ccccc1C(=O)O | -20.2 |
| Cc1ccccc1OCC(=O)Nc1sc(C(=O)Nc2cccc(C)c2C)c(C)c1C#N | 5.47 |
| CCOC(=O)C1=NNC(C(=O)c2ccccc2)C1c1ccc(C)cc1 (stereo not drawn) | -16.3 |
| Cc1c(N=C/C=C2\N(C)c3ccccc3C2(C)C)c(=O)n(-c2ccccc2)n1C | -53.7 |
| Cc1cccc(CC(=O)NC2CCCCCC2)c1 | 3.96 |
| O=C(/C=C/c1cccs1)N1CCN(c2ccccc2F)CC1 | -36.1 |
| CCOC(=O)C1=C(COC(=O)c2ccco2)NC(=O)NC1CC (stereo not drawn) | 8.95 |
| O=C(Nc1ccn(-c2ccccc2)n1)c1ccc(Cl)cc1 | -8.56 |
| CN(C)CCCN(C(=O)CCc1ccccc1)c1nc2ccc(F)cc2s1.Cl | -70.1 |
